Experimental data reported in PubChem BioAssay AID886 (National Center for Advancing Translational Sciences (NCATS), 2007).
About 2,500 (3.4%) of roughly 73,000 compounds were called active. The inconclusive results got no clear call from the source; some entries with a clear call stand among them for comparison. The call rests on the fitted dose curve; in most records, active means well fitted inhibition curve with a large enough effect; inconclusive means small, poorly fitted or top-dose-only effect; inactive means no such curve, though single readings can be large or run the other way. A potency beside an inconclusive call is a rough fit, not a confirmed value.

What follows are molecules tested against 3-hydroxyacyl-CoA dehydrogenase type-2 (Homo sapiens) (UniProt Q99714) (assay: qHTS Assay for Inhibitors of HADH2 (Hydroxyacyl-Coenzyme A Dehydrogenase, Type II)). Details: recombinant HADH2, NADH fluorescence, beta-hydroxybutyryl-CoA; activity change, negative = inhibition: at 57.1 µM (top of the series).
Description: Assay Overview: NIH Molecular Libraries Screening Centers Network [MLSCN] NIH Chemical Genomics Center [NCGC] Structural Genomics Consortium [SGC] Grant Number: None HADH2: Hydroxyacyl-Coenzyme A dehydrogenase, type II, was supplied by researchers at the Structural Genomics Consortium, Oxford University lab (PI Udo Oppermann). The mitochondrial enzyme 17-hydroxysteroid dehydrogenase type 10 (HSD17-10) previously classified as type II hydroxyacyl-CoA dehydrogenase (HADH2) catalyzes the NAD+ dependent oxidation of a variety of substrates including acyl-CoAs, androgens and neurosteroids as well as bile acids(Shafqat N, Marschall HU, Filling C, et al. Biochemical Journal. 2003;376(Pt 1):49-60). The role in neurodegeneration by binding to amyloid-peptide led to its identification (Oppermann UC, et al FEBS Letters. 1999;451(3):238-242 and Yan SD, et al. Nature. 1997;389(6652):689-695), and mutations in its gene appear to be causative for 2-methyl-3-hydroxybutyryl-CoA dehydrogenase deficiency (Ofman R, et al. American Journal of Human Genetics. 2003;72(5):1300-1307). The enzyme was produced by E.coli fermentation as His-tagged recombinant for the purpose of X-ray structure determination, and had been mass-spectrometry characterized. Inhibition of HADH2 activity was screened by utilizing beta-hydroxybutyryl coenzyme A as an electron donor and NAD+ as an electron acceptor/cofactor. An increase in the fluorescence intensity due to conversion of NAD+ to NADH was used to measure the enzyme activity.
Assay Protocol: Buffer: 100 mM Tris-HCl pH 9.0, containing 0.01 % Tween-20. Reagents/Controls: Buffer in columns 3 and 4 as negative control (no enzyme). Substrate/cofactor solution: 1 mM NAD+ and 90 uM beta-hydroxybutyryl coenzyme A (Sigma-Aldrich, St. Louis, MO) final concentrations dispensed throughout the plate. Enzyme: 20 nM HADH2 final concentration in columns 1, 2, 5-48. Column 1 is neutral (100% activity). Column 2 contained titration of apomorphine (Sigma-Aldrich, A 4393, PubChem CID 2215, top concentration 500 uM, then 1:2 dilution in duplicate) Assay Steps: Three uL of enzyme were dispensed to 1536-well Greiner black solid bottom plates. Compounds and controls (23 nL) were transferred via Kalypsys PinTool. The plates were incubated for 15 min at room temperature, and then 1 uL of substrate/cofactor solution was added to start the reaction. The plates were immediately transferred to and read every 30 seconds for 4 min on ViewLux High-throughput CCD imager (Perkin-Elmer) using 360 nm excitation and 450 nm emission fluorescence protocol. The fluorescence intensity difference between the last and the first time points was used to compute reaction progress.
Further: nearly all actives have a fitted effect of over 60% in size.
On the % scale 0 is the no-effect control and ±100 the full control effect; potency means the concentration at half of the fitted maximal effect; tags describe the fitted curve by direction and shape.

UniProt Q99714, sequence (Q99714 whole entry, looked up): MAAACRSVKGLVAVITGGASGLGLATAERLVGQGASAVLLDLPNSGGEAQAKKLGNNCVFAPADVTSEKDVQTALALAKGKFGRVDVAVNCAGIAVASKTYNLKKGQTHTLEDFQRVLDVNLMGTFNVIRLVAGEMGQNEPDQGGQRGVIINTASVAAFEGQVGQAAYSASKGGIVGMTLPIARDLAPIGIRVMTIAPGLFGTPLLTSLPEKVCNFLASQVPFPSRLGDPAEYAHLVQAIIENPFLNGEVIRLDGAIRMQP
UniProt Q99714, sequence (Q99714 whole entry, looked up): as above

| Structure (SMILES) | activity change, negative = inhibition | Potency |
| --- | --- | --- |
| Cc1ccc(S(=O)(=O)c2nc(S(C)(=O)=O)sc2NCC2CCCO2)cc1 (configuration not stated) | inactive: 5.21% [at 11.4 µM] | – |
| CCn1c(SCC(=O)N2CCN(c3ccccc3)CC2)nnc1-c1cc2cc(Cl)ccc2o1 | – | inactive |
| CO[C@H]1C[C@@H]2C[C@H](O)C[C@@H](CC(=O)O[C@@H](/C=C\CC(C)C)C[C@@H]3CC[C@H](C)[C@@H](C1)O3)O2 | inactive: -2.86% [at 11.4 µM] | – |
| CCn1c(N)c(C(=O)NCc2cccnc2)sc1=S | – | inconclusive: 31.6 µM [inhibitor, single point] |
| CCOc1cc(NC(=O)c2ccco2)c(OCC)cc1NC(=O)Cc1cccc(OC)c1 | – | inconclusive: 7.94 µM [inhibitor, partial curve] |
| Cc1ccc(-c2cc3c(nn2)-c2ccccc2C3=O)cc1 | inactive: -1.73% [at 11.4 µM] | – |
| O=C(CCn1c(=O)c2ccccc2n(Cc2cc(=O)n3ccccc3n2)c1=O)NCc1ccco1 | – | inconclusive: 31.6 µM [inhibitor, single point] |
| CC1(C)OCC(CSC2=C(SCC3COC(C)(C)O3)C(=O)c3ncccc3C2=O)O1 (configuration not stated) | – | inconclusive: 0.0794 µM [inhibitor, full curve] |
| CCCCn1c(SCC(=O)Nc2cccc(OC)c2)nc2ccc(N3CCOCC3)cc2c1=O | – | inconclusive: 3.16 µM [inhibitor, full curve, poor fit] |
| O=C(CSCc1cccc(Br)c1)N1CCOCC1 | – | inactive |
| O=C(CN(CCc1ccccc1)C(=O)CNS(=O)(=O)c1ccc(F)cc1)NCC1CCCO1 (configuration not stated) | – | inactive |
| COc1cc2[nH]c(=O)n(CCCCCC(=O)NCCCN3CCCC3=O)c(=O)c2cc1OC | – | inconclusive: 31.6 µM [inhibitor, single point] |
| O=C(Nc1cccc2nsnc12)c1ccc2c(c1)OCCO2 | – | inactive |
| c1csc(-c2ncc3ccccn23)c1 | – | inconclusive: 31.6 µM [inhibitor, single point] |
| COc1cc([C@@H]2Oc3cc([C@H]4Oc5cc(O)cc(O)c5C(=O)[C@H]4O)ccc3O[C@H]2CO)ccc1O | – | active: 31.6 µM |
| COC(=O)N1CCC2(CC1)CN(c1cccc(-c3ccccc3)c1)C2 | – | inactive |
| CC(=O)NC(CCS(C)(=O)=O)C(=O)Nc1cccc(C(C)=O)c1 (configuration not stated) | – | inactive |
| CCOc1cccc(C(=O)Nc2nc(-c3ccc(S(=O)(=O)N4CCOCC4)cc3)cs2)c1 | – | inconclusive: 31.6 µM [inhibitor, single point] |
| COc1ccc(CC(=O)Nc2ccc(-c3nnc(-c4ccccc4)o3)cc2)cc1OC | – | inconclusive: 39.8 µM [inhibitor, single point] |
| COc1ccc(-c2cn3cc(Cl)ccc3n2)cc1OC | – | inconclusive: 39.8 µM [inhibitor, single point] |
| Cc1nc(NCc2ccccc2)c2nc(-c3ccccc3)n(CCCN3CCOCC3)c2n1 | – | inconclusive: 39.8 µM [inhibitor, single point] |
| CC(=O)Nc1ccc(S(=O)(=O)N2CCN(c3nc(NC4CCCC4)c4ccccc4n3)CC2)cc1 | – | inconclusive: 7.94 µM [inhibitor, single point] |
| Cc1ccc(-n2c(SCC(=O)OC(C)C)nnc2-c2ccncc2)cc1 | – | inconclusive: 39.8 µM [inhibitor, single point] |
| Cc1ccc(SCC(=O)NCc2ccco2)cc1 | – | inconclusive: 0.199 µM [inhibitor, full curve, poor fit] |

| Structure (SMILES) | activity change, negative = inhibition | Potency |
| --- | --- | --- |
| CSc1nnc(-c2ccc(S(=O)(=O)N3CCCC3)cc2)n1C | – | inconclusive: 39.8 µM [inhibitor, single point] |
| N#C/C(C(=O)c1ccccc1)=C1/SC=C(N)N1c1ccccc1 | – | inconclusive: 1.58 µM [inhibitor, partial curve] |
| Cc1oc2ccccc2c1-c1cn2c(n1)SCC2 | – | inconclusive: 6.31 µM [inhibitor, single point] |
| CN(C)CCNc1oc(-c2ccccc2F)nc1C#N | – | inconclusive: 12.6 µM [inhibitor, partial curve] |
| N=c1c(S(=O)(=O)c2ccccc2)cc2c(=O)n3ccccc3nc2n1CC1CCCO1 (configuration not stated) | – | inactive |
| COc1ccc(-c2nc(C#N)c(NC(C)c3ccccc3)o2)cc1OC (configuration not stated) | – | inconclusive: 31.6 µM [inhibitor, single point] |
| COCCCn1c(CCC(=O)O)ccc1-c1ccc(F)cc1 | – | inconclusive: 20 µM [inhibitor, single point] |
| N#Cc1c(-c2ccco2)nc(SCc2ccc(F)cc2)[nH]c1=O | – | inconclusive: 20 µM [inhibitor, partial curve] |
| O=C(Nc1cccnc1)C1(F)C(F)(F)C(F)(F)C(F)(F)C(F)(F)C1(F)F | – | inconclusive: 31.6 µM [inhibitor, single point] |
| CCCc1ccc(Oc2cn[nH]c2-c2ccc(O)c(C)c2O)cc1 | – | active: 12.6 µM |
| COC(=O)Cn1c2ccc(F)cc2c2nc(C)sc21 | – | inconclusive: 25.1 µM [inhibitor, partial curve] |
| Cn1c(-c2ccccc2)cc2c3no[n+]([O-])c3ccc21 | – | inactive |
| O=C(Nc1ccccc1O)c1ccc(Cl)cc1 | – | inactive |
| CCOc1cc(C2C(C#N)=C(N)Oc3n[nH]c(-c4ccccc4)c32)ccc1O (configuration not stated) | – | inconclusive: 25.1 µM [inhibitor, partial curve] |
| COc1ncc2nc(-c3ccccc3)c(=O)n(CCC#N)c2n1 | – | active: 39.8 µM |
| CCOC(=O)C1CCN(CCC(=O)Nc2cccc(Cl)c2)CC1 | – | inconclusive: 39.8 µM [inhibitor, single point] |
| O=C1CCCc2c1[nH]c1ccccc21 | – | inconclusive: 31.6 µM [inhibitor, single point] |
| CCn1c(SCC(=O)NCc2ccc3c(c2)OCO3)nnc1-c1c[nH]c2ccccc12 | – | inactive |
| CC1CN(S(=O)(=O)c2cccc(-c3cn4cccnc4n3)c2)CC(C)O1 (configuration not stated) | – | active: 12.6 µM |
| CCC(=O)c1cn(CC(=O)NCc2cccnc2)c2ccccc12 | – | inactive |
| CC1(C)Cc2nc3sc4c(SCC(=O)NCc5ccco5)ncnc4c3cc2CO1 | – | inactive |
| COc1ccc2c(c1)sc1nc(-c3ccccc3)cn12 | – | inactive |
| COc1cc(OC)c(C2CC(=O)N3CN(C)CSC3=C2C#N)cc1OC (configuration not stated) | – | active: 2.51 µM |
| CCN(CC)c1ccc(C2C(C(=O)OCCOC(C)C)=C(C)NC3=C2C(=O)CCC3)cc1 (configuration not stated) | – | inactive |

| Structure (SMILES) | activity change, negative = inhibition | Potency |
| --- | --- | --- |
| O=C1CCCC/C1=C/Nc1ccc2c(c1)OCO2 | – | inconclusive: 3.98 µM [inhibitor, full curve, poor fit] |
| COc1ccc(-c2ccc(-c3noc(-c4cccc(OC)c4)n3)c(OC)n2)cc1 | – | inconclusive: 7.94 µM [inhibitor, single point] |
| O=C(CCc1nc(-c2ccccc2)no1)Nc1cc(C(F)(F)F)ccc1Cl | – | inconclusive: 25.1 µM [inhibitor, single point] |
| CC(=O)N1CCN(C(=O)COc2ccc(Br)cc2)CC1 | – | inactive |
| Nc1nc(Sc2ccc([N+](=O)[O-])c3nonc23)c2[nH]cnc2n1 | – | active: 1 µM |
| Cc1cc(/C=N/n2cnnc2)c(C)n1-c1ccc(OCc2ccccc2F)cc1 | – | inconclusive: 6.31 µM [inhibitor, single point] |
| CCCCNc1c(C(=O)OCC)c(C)nc2c1cnn2CC | – | inconclusive: 7.94 µM [inhibitor, full curve] |
| CN(C)c1nc(N)nc(-c2nc3ccccc3s2)n1 | – | inactive |
| Cc1ccc(OCCC(=O)OCC(=O)Nc2ccc(Cl)cn2)cc1 | – | inactive |
| O=C(c1cc(C(F)(F)F)cc(C(F)(F)F)c1)N1CCC2(CCCN(c3ccccc3)C2)CC1 | – | inactive |
| Cc1cccc(-c2noc(CN(C)S(=O)(=O)c3cc(Cl)ccc3Cl)n2)c1 | – | inactive |
| COc1ccc(CNc2ccnc(-c3ccoc3)n2)c(OC)c1 | – | inconclusive: 20 µM [inhibitor, partial curve] |
| C/C(=C\c1ccc(C(=O)O)cc1)c1ccc2c(c1)C(C)(C)CCC2(C)C | – | inconclusive: 25.1 µM [inhibitor, single point] |
| N=c1oc2c3c4c(cc2cc1C(=O)Nc1ccccc1)CCCN4CCC3 | – | inconclusive: 39.8 µM [inhibitor, single point] |
| O=C(O)C1CCCCC1C(=O)Nc1nccs1 (configuration not stated) | – | inactive |
| Cc1ccc(S(=O)(=O)N2CCN(c3nc4ccccc4nc3-n3nc(C)cc3C)CC2)cc1 | – | inconclusive: 39.8 µM [inhibitor, single point] |
| CCOC(=O)Nc1nnc(-c2cccc(OC)c2)s1 | – | active: 31.6 µM |
| Cc1ccccc1Cn1c(CN2CCN(c3ccc(F)cc3)CC2)nc2c1c(=O)n(C)c(=O)n2C | – | inconclusive: 39.8 µM [inhibitor, single point] |
| COC(=O)CSc1nnc2c3c4c(sc3nc(-n3nc(C)cc3C)n12)COC(C)(C)C4 | – | inconclusive: 31.6 µM [inhibitor, single point] |
| CCOc1ccc(C(=O)Cc2ccc3oc(C(=O)O)cc3c2)c(O)c1 | – | inconclusive: 31.6 µM [inhibitor, single point] |
| CCCc1cc(=O)n2[nH]c(-c3ccc(C)cc3)cc2n1 | – | inconclusive: 31.6 µM [inhibitor, single point] |
| O=C(CSc1nnc(-c2ccco2)o1)NC(=O)Cc1ccccc1 | – | inconclusive: 39.8 µM [inhibitor, single point] |
| O=C1C(Cl)=C(Nc2ccccc2O)C(=O)N1c1ccccc1 | – | active: 1 µM |
| COc1cc(C2CC(=O)NC(SCC(=O)Nc3ccccc3C)=C2C#N)ccc1O (configuration not stated) | – | inconclusive: 25.1 µM [inhibitor, single point] |
